Assay results taken from PubChem BioAssay AID686979 (National Center for Advancing Translational Sciences (NCATS), 2013).
Values joined by “and” are separate entries in the source; they are usually repeats but may differ in a detail not shown here. Equal values may be shown once. Out of some 420,000 compounds screened, about 50,000 (12%) were called active. The inconclusive results got no clear call from the source; some entries with a clear call stand among them for comparison. Calls follow the shape of the dose curve; as a rule, active = well fitted inhibition curve with a large enough effect; inconclusive = small, poorly fitted or top-dose-only effect; inactive = flat fitted curve, though single readings scatter. Potencies beside an inconclusive call are fits to weak or partial responses and may not hold up.

Experiment: qHTS for Inhibitors of human tyrosyl-DNA phosphodiesterase 1 (TDP1): qHTS in cells in presence of CPT; also: nearly all actives have a fitted effect of over 55% in size
Conditions: chicken DT40 Tdp1-/-;hTDP1 cells + 20 nM CPT, ATP luminescence, 48 h; activity change, negative = growth inhibition: at 46.2 µM (top of the series) unless noted
Method in brief: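 Chicken DT40 Tdp1-/- cells complemented with human TDP1, 400 cells/well, exposed to compounds plus 20 nM camptothecin for at least 48 h at 37 C; viability read as ATP content by CellTiter-Glo luminescence.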
% is scaled to controls: 0 for no effect and ±100 for the full control effect; potency is read from the fitted curve at half-maximal effect; tags tell the direction and shape of the fitted curve.

SMILES	Potency	activity change, negative = growth inhibition
Cc1ccc(C)c(NC(=O)CCC(=O)N/N=C/c2ccc3c(c2)OCO3)c1	inconclusive: 29.1 µM [inhibitor, single point]	
COc1ccc(Cl)cc1NC(=O)CN(C)C(=O)c1cc(C)oc1C	inactive	
CCc1cccc(NC(=O)Cc2ccc([N+](=O)[O-])cc2)c1	inactive	
N#Cc1ccc(COc2cccc3cccnc23)cc1	inactive	
O=C(CN(c1ccc(F)cc1)S(=O)(=O)c1ccccc1)NCCSC1CCCCC1	inconclusive: 29.1 µM [inhibitor, single point]	
C=CCC[C@@H](Cc1ccc(F)cc1)C(=O)OC[C@@H]1CCCN1C(=O)[C@@H](CC=C)CC(=O)N[C@@H](CO)Cc1ccccc1	active: 14.6 µM	
Fc1ccc(-c2cc(-c3cccs3)cc(-c3ccccc3)n2)cc1	inconclusive: 29.1 µM [inhibitor, single point]	
CCN(CC)S(=O)(=O)c1ccc(C(=O)OCC(=O)NCc2ccco2)cc1	inconclusive: 25.9 µM [inhibitor, single point]	
O=C(CSc1n[nH]c(=O)n1C1CC1)c1c[nH]c2ccccc12	inactive	
COc1ccccc1-c1cnc(C(O)c2ccc(Cl)cc2C)[nH]1 (configuration not stated)	inconclusive: 29.1 µM [inhibitor, single point]	
Cc1ccc(-c2csc(-c3cc4c([nH]c3=O)CC(c3ccccc3)CC4=O)n2)cc1 (configuration not stated)	active: 1.46 µM	
O=C(CSc1nc2ccccc2c(=O)n1-c1ccc(SC(F)F)cc1)Nc1ccc(N2CCOCC2)cc1	inconclusive: 9.2 µM [inhibitor, partial curve, poor fit]	
CC(NC(=O)Nc1cccc([N+](=O)[O-])c1)(C(F)(F)F)C(F)(F)F	active: 3.66 µM	
CCc1ccccc1NC(=O)Nc1cccs1	inactive	
Cc1cc(Cl)ccc1NS(=O)(=O)c1c(C(=O)N2CCC(C)CC2)c(C)n(C)c1C	inconclusive: 18.4 µM [inhibitor, single point]	
CC(C)(C)OC(=O)N[C@@H](C(=O)OC(C)(C)C)c1ccccc1	inconclusive: 20.6 µM [inhibitor, partial curve, poor fit]	
Cc1cc2c(cc1S(=O)(=O)Nc1ccc(OC(F)(F)F)cc1)OCC(=O)N2	inconclusive: 20.6 µM [inhibitor, single point] and inconclusive: 29.1 µM [inhibitor, single point]	
CC(C)c1ccc(COC(=O)CN2C(=O)NC3(CCCCC3C)C2=O)cc1 (configuration not stated)	inconclusive: 29.1 µM [inhibitor, single point]	
O=C(CSc1nc2ccc(N3CCOCC3)cc2c(=O)n1CCc1ccccc1)NCC1CCCO1 (configuration not stated)	inconclusive: 23.1 µM [inhibitor, single point]	
CCN(CC)S(=O)(=O)c1ccc2c(c1)N(CC(=O)NCc1ccccc1)C(=O)C1CCCCN21 (configuration not stated)	inconclusive: 32.6 µM [inhibitor, single point]	
Cc1sc(NC(=O)/C=C/c2ccc(C(C)C)cc2)c(C#N)c1C	inconclusive: 20.6 µM [inhibitor, partial curve]	
OCCCNCc1ccc(N(c2ccccc2)c2ccccc2)cc1	active: 16.4 µM	
Cc1cccc(C(c2c(C)nn(-c3ccccc3)c2N)c2c(C)nn(-c3ccccc3)c2N)c1	inactive	

SMILES	Potency	activity change, negative = growth inhibition
CSc1nc2ccc(NC(=O)c3cccs3)cc2s1	inconclusive: 29.1 µM [inhibitor, single point]	
Cc1ccc(N(C(=O)c2sc(C)nc2C)C(C(=O)NCc2ccco2)c2ccccc2)cc1 (configuration not stated)	inconclusive: 25.9 µM [inhibitor, single point]	
CSCCNC(=O)c1ccc2nc(Cc3ccccc3F)oc2c1	inactive	
CCC(COC)NCc1cn(-c2ccc(OC)cc2)nc1-c1cccc(F)c1 (configuration not stated)	active: 16.4 µM	
c1ccc(Nc2nc(N3CCNCC3)nc(N3CCOCC3)n2)cc1	inconclusive: 29.1 µM [inhibitor, single point]	
COc1ccc(CCNC(=O)CNC(=O)c2ccc3c(c2)OCO3)cc1OC	inactive	
C/C(=N\NC(=O)Cc1c(F)cccc1Cl)c1cccnc1	inactive	
COc1cc(C[C@@H]2C(=O)OC[C@H]2Cc2ccc(OC)c(OC)c2)ccc1O	active: 2.31 µM	
OC1(c2ccc(OC(F)F)cc2)CSC(=Nc2cccnc2)N1C1CC1 (configuration not stated)	active: 20.6 µM	
CC(C)N(C(=O)CN(C#N)c1nc(N(C)C)nc(N(C)C)n1)c1ccccc1	inconclusive: 20.6 µM [inhibitor, single point]	
CCN(CC)S(=O)(=O)c1cc(NC(=O)c2ccccc2OCc2c(C)noc2C)ccc1C	active: 16.4 µM	
Cn1nnnc1CCOCCc1nnnn1C	inconclusive: 16.4 µM [inhibitor, single point]	
Cn1c(SCc2ccccc2)nc2c1c(=O)[nH]c(=O)n2C	inactive	
O=C(c1ccc(COc2ccccc2Cl)o1)N1CCN(c2ccccc2)CC1	inconclusive: 29.1 µM [inhibitor, single point]	
Cc1ccccc1Cn1ccc(NC(=O)c2cc3nc(-c4ccco4)cc(C(F)(F)F)n3n2)n1	inconclusive: 20.6 µM [inhibitor, single point]	
CCOc1ccc(CC(=O)NCCc2sc3nc(-c4ccc(F)cc4)nn3c2C)cc1	inconclusive: 23.1 µM [inhibitor, single point]	
COc1ccc(CC(=O)NCC2CCCN(Cc3ccc(SC)cc3)C2)cc1 (configuration not stated)	inactive	
Cc1ccccc1NC(=O)c1cccc2c1C(=O)N(C1CCCCC1)C2	inconclusive: 29.1 µM [inhibitor, single point]	
COc1ccc(-c2cc(=O)oc3cc(OCC(=O)N(C)C)ccc23)cc1	inconclusive: 29.1 µM [inhibitor, single point]	
Cc1ccoc1C(=O)Nc1cccc(Oc2ccccc2)c1	inconclusive: 29.1 µM [inhibitor, single point]	
Cc1c(C)n(CCN(C)C)c2ccc(C(=O)OCCN(C)C)cc12	inconclusive: 33.5 µM [inhibitor, single point] and inconclusive: 29.1 µM [inhibitor, single point]	
O=C(CSc1n[nH]c(-c2ccc(S(=O)(=O)NC3CCCCC3)cc2)n1)N1CCCC1	inconclusive: 25.9 µM [inhibitor, single point]	
CCOC(=O)[C@H]1[C@H]2COc3ccc(Br)cc3[C@@H]2N2C(=O)N(c3ccccc3)C(=O)[C@@]12C	active: 18.4 µM	

SMILES	Potency	activity change, negative = growth inhibition
Cc1ccc2ncc(C(=O)c3ccc(C)c(C)c3)c(S(=O)(=O)c3ccc(F)cc3)c2c1	active: 8.2 µM	
CCOC(=O)CNC(=O)c1nn(-c2cccc(OC)c2)c(=O)c2ccccc12	inactive	
O=C(N[C@H]1C/C=C\C[C@H](CC(=O)N(CCO)Cc2ccccc2)C(=O)NC[C@H](c2ccccc2)OC1=O)OCC1c2ccccc2-c2ccccc21	active: 6.51 µM	
O=C(N1CCOCC1)N1c2ccccc2Sc2ccccc21	inconclusive: 14.6 µM [inhibitor, single point]	
O=C1NC(=O)c2cc([N+](=O)[O-])cc3cccc1c23	inconclusive: 16.4 µM [inhibitor, partial curve]	
COc1ccc(-c2cc(C(=O)N3CCOCC3)c3cc(C)ccc3n2)cc1		inconclusive: -32.1% [inhibitor]
O=C1OC(c2cccc3c(F)cccc23)c2ccccc21 (configuration not stated)	inactive	
COc1ccc(OC)c2[nH]c(=O)c(CCNC(=O)C(=O)c3c[nH]c4ccccc34)cc12	active: 10.3 µM	
O=C(CCNS(=O)(=O)c1ccccc1)NNC(=O)c1csc(N2CCOCC2)n1	inconclusive: 29.1 µM [inhibitor, single point]	
COc1ccc([C@H]2C[C@H](O)[C@@H](n3cc(C4CC4)nn3)CN2CC2CCCCC2)cc1	inconclusive: 16.4 µM [inhibitor, single point]	
COc1cc(/C=N/NC(=O)c2ccccc2Cl)ccc1Oc1ccc([N+](=O)[O-])cn1	inconclusive: 29.1 µM [inhibitor, single point]	
COc1ccc(NC(C)=O)cc1CP(=O)(c1ccccc1)c1ccccc1	inactive	
COc1ccc(COc2cc(-c3cccc(OC)c3)nc3ccc(NC(=O)c4ccc(N(C)C)cc4)cc23)cc1	active: 3.66 µM	
COc1cccc(C(C(=O)NC2CCCC2)N(CCC(C)C)C(=O)CCC(=O)Nc2cc(C)on2)c1 (configuration not stated)	inconclusive: 29.1 µM [inhibitor, single point]	
Cn1nnnc1SCc1nc2scc(-c3ccccc3)c2c(=O)[nH]1	inconclusive: 29.1 µM [inhibitor, single point]	
COc1ccc(OCC(=O)O/N=C(\N)c2ccc(OC)c(OC)c2)cc1	inconclusive: 20.6 µM [inhibitor, partial curve, poor fit]	
CC(Oc1ccccc1)C(=O)Nc1ccc(S(=O)(=O)NCC2CCCO2)cc1 (configuration not stated)	inconclusive: 29.1 µM [inhibitor, single point]	
COc1ccc(NC(=O)N(C)C[C@H]2Oc3ccc(NC(=O)Nc4ccc(C(F)(F)F)cc4)cc3C(=O)N([C@H](C)CO)C[C@@H]2C)cc1	inconclusive: 20.6 µM [inhibitor, single point]	
Cc1ccc(CNc2nnc(C)c3nnn(Cc4ccc(F)cc4)c23)cc1	inconclusive: 16.4 µM [inhibitor, single point]	
CCc1ccc(-c2nc(CSCC(=O)NCc3ccco3)c(C)o2)cc1	inconclusive: 29.1 µM [inhibitor, single point]	
Cn1cc(CCC(=O)NCc2ccc3c(c2)OCO3)c2ccccc21	inactive	
